Hit rate of the full screen: of about 310,000 compounds, about 14,000 (4.5%) showed an effect of 50% or more. Effects have a minus sign here. This is one part of the list.
target: human ether-à-go-go-related gene (hERG) potassium channel (human, UniProt Q12809); test: primary screen, population patch clamp on CHO cells stably expressing hERG
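Also: peak tail current of the secondary pulse compared with the same well before compound.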

Chain of human ether-à-go-go-related gene (hERG) potassium channel (Q12809 whole entry, looked up): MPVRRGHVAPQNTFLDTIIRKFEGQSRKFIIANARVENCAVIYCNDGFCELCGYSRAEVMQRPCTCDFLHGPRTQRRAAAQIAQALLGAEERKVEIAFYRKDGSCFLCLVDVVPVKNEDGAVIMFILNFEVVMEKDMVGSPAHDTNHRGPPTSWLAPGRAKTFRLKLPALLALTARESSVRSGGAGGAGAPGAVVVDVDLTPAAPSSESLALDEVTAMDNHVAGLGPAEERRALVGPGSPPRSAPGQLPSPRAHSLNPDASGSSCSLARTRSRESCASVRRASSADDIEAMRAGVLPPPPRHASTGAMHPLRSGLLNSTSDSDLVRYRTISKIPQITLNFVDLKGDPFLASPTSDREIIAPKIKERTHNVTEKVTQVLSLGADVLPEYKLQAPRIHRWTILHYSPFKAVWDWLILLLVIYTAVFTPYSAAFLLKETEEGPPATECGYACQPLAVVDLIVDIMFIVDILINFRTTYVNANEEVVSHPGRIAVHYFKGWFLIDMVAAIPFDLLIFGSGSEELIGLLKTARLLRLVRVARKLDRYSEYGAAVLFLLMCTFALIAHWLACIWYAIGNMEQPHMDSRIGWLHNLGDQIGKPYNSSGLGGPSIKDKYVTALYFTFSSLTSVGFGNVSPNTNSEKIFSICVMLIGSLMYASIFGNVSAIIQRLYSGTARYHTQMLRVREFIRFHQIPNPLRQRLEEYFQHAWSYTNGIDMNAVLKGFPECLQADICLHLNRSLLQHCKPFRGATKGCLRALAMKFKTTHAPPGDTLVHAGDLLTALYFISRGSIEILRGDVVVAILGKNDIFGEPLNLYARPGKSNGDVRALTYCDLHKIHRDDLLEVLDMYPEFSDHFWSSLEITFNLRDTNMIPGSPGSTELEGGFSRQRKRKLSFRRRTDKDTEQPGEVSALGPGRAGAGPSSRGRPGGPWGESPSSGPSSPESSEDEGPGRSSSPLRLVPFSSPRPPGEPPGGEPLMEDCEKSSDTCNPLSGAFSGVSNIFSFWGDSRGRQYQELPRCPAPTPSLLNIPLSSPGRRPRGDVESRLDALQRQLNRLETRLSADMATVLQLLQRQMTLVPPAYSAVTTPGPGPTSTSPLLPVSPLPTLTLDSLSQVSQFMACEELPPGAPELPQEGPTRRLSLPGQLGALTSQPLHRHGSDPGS

Question: How did the “hERG current change (%, negative = inhibition) at 10uM” value turn out when `CC(C)Oc1ccc(C(=O)NCC(=O)O)cc1` was run?
Answer: 20.8%

Question: `CCOc1ccc(NC(=NCc2ccc3c(c2)OCO3)SC2CC(=O)N(c3ccccc3)C2=O)cc1` (stereo not shown) was tested. Which “hERG current change (%, negative = inhibition) at 10uM” value did it give?
Answer: 10.1%

Question: For `O=C(C1CCCN1S(=O)(=O)c1cccc2nsnc12)N1CCN(c2ccccc2)CC1` (stereo not shown), which “hERG current change (%, negative = inhibition) at 10uM” value is on record?
Answer: -69.5%

Question: For `C[C@@H]1NC(=O)[C@@]2(C)[C@@H](c3ccccc3)[C@H]3COc4ccccc4[C@@H]3N2C1=O`, which “hERG current change (%, negative = inhibition) at 10uM” value is on record?
Answer: -9.03%

Question: Which “hERG current change (%, negative = inhibition) at 10uM” value does the source give for `COCC1CCN(C(=O)c2cc(COc3ccccc3SC)on2)C1` (stereo not shown) here?
Answer: -33.9%

Question: Which “hERG current change (%, negative = inhibition) at 10uM” value does the source give for `CCOc1ccc(CCNC(=O)C2CCN(S(=O)(=O)c3ccc(C)cc3)CC2)cc1OCC` here?
Answer: -2.33%

Question: Which “hERG current change (%, negative = inhibition) at 10uM” value does the source give for `CC(C)C(C)NC(=O)CSc1nnc(-c2c[nH]c3ccccc23)o1` (stereo not shown) here?
Answer: 7.76%

Question: How did the “hERG current change (%, negative = inhibition) at 10uM” value turn out when `CC(=O)c1c(C)[nH]c(C(=O)COC(=O)c2cc(C)oc2C)c1C` was run?
Answer: -11.5%

Question: For `O=C(NCC(=O)N1CCCC(C(F)(F)F)C1)c1ccco1` (stereo not shown), which “hERG current change (%, negative = inhibition) at 10uM” value is on record?
Answer: 10.3%

Question: With `COc1ccc(C)cc1NC(=O)CN(C)S(=O)(=O)c1cc(C)ccc1OC` as the molecule, how does the “hERG current change (%, negative = inhibition) at 10uM” value read?
Answer: -17.6%

Question: With `CNS(=O)(=O)c1cc(OCC(N)=O)c(C)cc1Cl` as the molecule, how does the “hERG current change (%, negative = inhibition) at 10uM” value read?
Answer: 16.8%

Question: Which “hERG current change (%, negative = inhibition) at 10uM” value does the source give for `O=C1CN(C(=O)c2cc3ccccc3o2)c2ccccc2N1` here?
Answer: -9.48%

Question: `COc1ccccc1NC(=O)C(Cc1ccc(Cl)cc1)c1nn[nH]n1` (stereo not shown) was tested. Which “hERG current change (%, negative = inhibition) at 10uM” value did it give?
Answer: 3.7%

Question: `COC(=O)/C=c1\sc2ncnn2c1=O` was tested. Which “hERG current change (%, negative = inhibition) at 10uM” value did it give?
Answer: 3.63%

Question: For `CNS(=O)(=O)c1ccc(C(=O)NCC(=O)NCCc2ccc3c(c2)OCCO3)cc1`, which “hERG current change (%, negative = inhibition) at 10uM” value is on record?
Answer: 12.9%

Question: How did the “hERG current change (%, negative = inhibition) at 10uM” value turn out when `O=C(COc1ccccc1)NCC(=O)N/N=C/C=C/c1ccccc1` was run?
Answer: 10.2%

Question: With `Cc1cc(OCC(=O)NCCCN2CCCC2=O)c2c(C)cc(=O)oc2c1` as the molecule, how does the “hERG current change (%, negative = inhibition) at 10uM” value read?
Answer: 16.1%

Question: `COc1ccc(NC(=S)NCc2ccccc2Cl)c(OC)c1` was tested. Which “hERG current change (%, negative = inhibition) at 10uM” value did it give?
Answer: 14.5%

Question: For `CCc1noc(C)c1C(=O)NNC(=O)c1ccc(F)cc1`, which “hERG current change (%, negative = inhibition) at 10uM” value is on record?
Answer: 19.2%

Question: Which “hERG current change (%, negative = inhibition) at 10uM” value does the source give for `O=C(CC(=O)N/N=C/c1c(Cl)cccc1Cl)NCc1cccnc1` here?
Answer: 4.38%

Question: For `COc1ccccc1/C=C/C=N/n1c(C)nnc1C`, which “hERG current change (%, negative = inhibition) at 10uM” value is on record?
Answer: 26.6%

Question: With `O=C(NC(=S)Nc1cccc2[nH]ncc12)c1ccccc1` as the molecule, how does the “hERG current change (%, negative = inhibition) at 10uM” value read?
Answer: 10.8%

Question: `COCCN=c1scc(-c2ccccc2)n1/N=C/c1c[nH]c2ccccc12` was tested. Which “hERG current change (%, negative = inhibition) at 10uM” value did it give?
Answer: 18.7%

Question: For `O=C(NC1CCCC1)C(c1ccncc1)N(C(=O)c1csnn1)c1ccc(F)cc1` (stereo not shown), which “hERG current change (%, negative = inhibition) at 10uM” value is on record?
Answer: 20.3%

Question: How did the “hERG current change (%, negative = inhibition) at 10uM” value turn out when `Cc1ccccc1-c1nn(-c2ccc(F)cc2F)cc1CNC1CC1` was run?
Answer: 4.39%

Question: Which “hERG current change (%, negative = inhibition) at 10uM” value does the source give for `Cc1ccc(CC(=O)Nc2ncc([N+](=O)[O-])s2)cc1` here?
Answer: 32.5%

Question: With `CCn1nnnc1SCC(=O)Nc1nc(-c2cccs2)cs1` as the molecule, how does the “hERG current change (%, negative = inhibition) at 10uM” value read?
Answer: 3.04%

Question: Which “hERG current change (%, negative = inhibition) at 10uM” value does the source give for `Cc1nc(C)c(C(=O)O)c(-c2ccsc2)c1C(=O)O` here?
Answer: 4.65%

Question: For `COC(=O)/C=C/c1ccc(OC(=O)c2ccncc2)cc1`, which “hERG current change (%, negative = inhibition) at 10uM” value is on record?
Answer: 9.12%

Question: With `Oc1ccc(-c2nc(=S)[nH][nH]2)cc1` as the molecule, how does the “hERG current change (%, negative = inhibition) at 10uM” value read?
Answer: 23.5%

Question: Which “hERG current change (%, negative = inhibition) at 10uM” value does the source give for `Cc1c(/C=N/n2cnnc2)c2ccccc2n1CCOc1ccccc1` here?
Answer: -6.78%

Question: With `COc1ccc(N(CC(=O)NC2CCCC2)C(=O)c2ccc(C)s2)c(OC)c1` as the molecule, how does the “hERG current change (%, negative = inhibition) at 10uM” value read?
Answer: -14.5%

Question: Which “hERG current change (%, negative = inhibition) at 10uM” value does the source give for `O=C(c1ccc(Oc2ccc(C(F)(F)F)cc2[N+](=O)[O-])cc1)N1CCOCC1` here?
Answer: -37.9%

Question: With `CCOC(=O)c1cnc2c(ccc3ccccc32)c1NCCCN(C)C` as the molecule, how does the “hERG current change (%, negative = inhibition) at 10uM” value read?
Answer: -47%

Question: For `COc1cccc(OCC(=O)Nc2cc(Cl)ccc2Oc2ccccc2)c1`, which “hERG current change (%, negative = inhibition) at 10uM” value is on record?
Answer: 15.3%

Question: For `O=C1NC(=O)C(Cc2cccc(Oc3ccccc3)c2)S1` (stereo not shown), which “hERG current change (%, negative = inhibition) at 10uM” value is on record?
Answer: 18.6%

Question: How did the “hERG current change (%, negative = inhibition) at 10uM” value turn out when `Nc1nc(C(=O)N2CCOCC2)nn1S(=O)(=O)c1ccc(Cl)cc1` was run?
Answer: -0.481%

Question: With `O=C(NCC(=O)N1CCc2ccccc2C1)c1ccc(Cl)cc1Cl` as the molecule, how does the “hERG current change (%, negative = inhibition) at 10uM” value read?
Answer: -41.2%

Question: Which “hERG current change (%, negative = inhibition) at 10uM” value does the source give for `Cc1nnsc1C(=O)Nc1ccc(S(=O)(=O)N2CCCCC2C)cc1` (stereo not shown) here?
Answer: 0.606%

Question: `O=c1[nH]n(Cc2ccccc2)c2ccccc12` was tested. Which “hERG current change (%, negative = inhibition) at 10uM” value did it give?
Answer: 6.97%

Question: For `O=C(CSc1nnc(-c2ccncc2)o1)NC1C2CC3CC(C2)CC1C3` (stereo not shown), which “hERG current change (%, negative = inhibition) at 10uM” value is on record?
Answer: -20.7%

Question: Which “hERG current change (%, negative = inhibition) at 10uM” value does the source give for `COc1ccccc1C(CNc1nc(C(F)(F)F)nc2ccccc12)N(C)C` (stereo not shown) here?
Answer: -29%

Question: Which “hERG current change (%, negative = inhibition) at 10uM” value does the source give for `O=C(CN1CCN(c2ccccc2F)CC1)NC(=O)NCc1ccco1` here?
Answer: 12.1%

Question: Which “hERG current change (%, negative = inhibition) at 10uM” value does the source give for `COC(=O)c1nnn(CC(=O)NC(=O)Nc2ccc(F)cc2)c1C(=O)OC` here?
Answer: 1.97%

Question: Which “hERG current change (%, negative = inhibition) at 10uM” value does the source give for `O=C(Nc1ccc(Cl)cc1)C(c1ccccc1)N1CCOCC1` (stereo not shown) here?
Answer: -27.6%

Question: How did the “hERG current change (%, negative = inhibition) at 10uM” value turn out when `C=CCc1cc(OC)c2c(c1)OCO2` was run?
Answer: 8.39%

Question: For `O=C(NCCS(=O)(=O)c1ccc(Br)cc1)c1c(F)cccc1F`, which “hERG current change (%, negative = inhibition) at 10uM” value is on record?
Answer: 22.1%

Question: `COc1cc(CCCN2C(=S)NC[C@@H]2Cc2ccccc2)cc(OC)c1OC` was tested. Which “hERG current change (%, negative = inhibition) at 10uM” value did it give?
Answer: -8.91%

Question: With `COc1ccc(NC(=S)NC2CC3CCC2C3)c(OC)c1` (stereo not shown) as the molecule, how does the “hERG current change (%, negative = inhibition) at 10uM” value read?
Answer: 17.3%

Question: For `CC(OC(=O)C1COc2ccccc2O1)C(=O)N(C)c1ccccc1` (stereo not shown), which “hERG current change (%, negative = inhibition) at 10uM” value is on record?
Answer: 1.71%

Question: For `Cc1cccc(NC(=S)N2CCCCCC2)c1`, which “hERG current change (%, negative = inhibition) at 10uM” value is on record?
Answer: -3.94%

Question: Which “hERG current change (%, negative = inhibition) at 10uM” value does the source give for `COc1ccc(CCNC(=O)c2ccc(N3CCCC3=O)cc2)cc1` here?
Answer: -7.01%

Question: How did the “hERG current change (%, negative = inhibition) at 10uM” value turn out when `COc1cc(NC(=O)CNC(c2ccccc2)c2ccccc2)cc(OC)c1OC` was run?
Answer: 2.15%

Question: How did the “hERG current change (%, negative = inhibition) at 10uM” value turn out when `CC(=O)CCS(=O)(=O)c1ccc(Oc2ccc(S(=O)(=O)CCC(C)=O)cc2)cc1` was run?
Answer: -2.04%

Question: With `COc1ccc(N2CCN(C(=O)CSc3ncccc3-c3nc4ccccc4[nH]3)CC2)cc1` as the molecule, how does the “hERG current change (%, negative = inhibition) at 10uM” value read?
Answer: -53.4%

Question: How did the “hERG current change (%, negative = inhibition) at 10uM” value turn out when `O=P(Oc1ccccc1)(Oc1ccccc1)c1ccccc1` was run?
Answer: -21.8%

Question: Which “hERG current change (%, negative = inhibition) at 10uM” value does the source give for `COC(=O)c1ccc2nc(NC(=O)CSCC(=O)OCC(=O)c3ccccc3)sc2c1` here?
Answer: -4.95%

Question: How did the “hERG current change (%, negative = inhibition) at 10uM” value turn out when `CC1=C(C#N)C(Nc2cccc(C)n2)(C(F)(F)F)C(=O)N1` (stereo not shown) was run?
Answer: 12.2%
